{"source": "PubChem BioAssay AID1477", "about": "(National Center for Advancing Translational Sciences (NCATS), 2009)", "note": "Screen size: about 230,000 compounds; fewer than 10 were called active. The inconclusive results got no clear call from the source; some entries with a clear call stand among them for comparison. The call rests on the fitted dose curve; in most records, active means well fitted curve in the direction sought with a large enough effect; inconclusive means small, poorly fitted or top-dose-only effect, or effect the other way, or another doubt; inactive means no such curve, though single readings can be large or run the other way. Potencies of inconclusive entries are left out as doubtful fits.", "data": [{"target": "Runt-related transcription factor 1 (Homo sapiens) + Core-binding factor subunit beta (Homo sapiens) (UniProt Q01196+Q13951)", "sequence (Q01196 whole entry, looked up)": "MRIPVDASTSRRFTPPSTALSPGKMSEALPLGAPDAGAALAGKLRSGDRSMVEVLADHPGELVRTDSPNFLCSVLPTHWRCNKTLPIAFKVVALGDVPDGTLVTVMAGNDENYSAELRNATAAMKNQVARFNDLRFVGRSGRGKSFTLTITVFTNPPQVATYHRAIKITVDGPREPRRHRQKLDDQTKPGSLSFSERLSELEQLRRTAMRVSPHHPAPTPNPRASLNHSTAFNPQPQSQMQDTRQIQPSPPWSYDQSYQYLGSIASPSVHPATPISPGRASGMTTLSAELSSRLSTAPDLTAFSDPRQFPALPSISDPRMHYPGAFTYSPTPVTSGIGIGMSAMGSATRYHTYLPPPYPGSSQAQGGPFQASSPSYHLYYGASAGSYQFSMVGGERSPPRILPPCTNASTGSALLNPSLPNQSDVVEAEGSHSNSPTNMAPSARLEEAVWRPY", "sequence (Q13951 whole entry, looked up)": "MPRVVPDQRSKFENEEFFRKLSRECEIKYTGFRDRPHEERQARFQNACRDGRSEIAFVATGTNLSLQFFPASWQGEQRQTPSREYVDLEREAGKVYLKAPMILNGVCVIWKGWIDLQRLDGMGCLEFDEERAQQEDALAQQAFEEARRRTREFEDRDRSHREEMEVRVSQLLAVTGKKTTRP", "assay": "qHTS Assay for Compounds Blocking the Interaction Between CBF-beta and RUNX1 for the Treatment of Acute Myeloid Leukemia; on activity, negative = inhibition: % of control where 0% means no effect", "settings": "AlphaScreen CBFb-His/RUNX1-biotin binding, biochemical; activity, negative = inhibition: at 59.8 µM (top of the series) unless noted", "procedure,_shortened": "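AlphaScreen proximity signal reports loss of binding between His-tagged CBF-beta and biotin-labelled RUNX1, each at 30 nM. Proteins are pre-associated for 20 minutes, compounds added for 15 minutes, then beads for 90 minutes, all at ambient temperature.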", "values": [{"molecule": "O=C(/C=C/c1ccco1)Nc1cccc2cccnc12", "Potency": "inconclusive [inhibitor, partial curve]"}, {"molecule": "Cn1cccc1/C=C(/C#N)c1ccc(F)cc1", "Potency": "inconclusive [inhibitor, single point]"}, {"molecule": "O=C(Nc1ccc2c(c1)OCO2)c1cc(-c2cccnc2)nc2ccccc12", "Potency": "inconclusive [inhibitor, single point]"}, {"molecule": "CCN(CC)CCOC(=O)c1ccc(N/C=C(/C#N)c2nc(-c3ccc(OC)cc3)cs2)cc1", "Potency": "inconclusive [activator, single point]"}, {"molecule": "O=C(Nc1cccnc1)c1ccccc1NS(=O)(=O)c1ccc(F)cc1", "Potency": "inconclusive [activator, partial curve, poor fit]"}, {"molecule": "CC(C)(C)c1ccc(S(=O)(=O)Nc2ccccn2)cc1", "Potency": "inactive"}, {"molecule": "O=C(O)CCn1cc(/C=C2/NC(=S)N(c3ccccc3)C2=O)c(-c2ccccc2)n1", "Potency": "inactive"}, {"molecule": "Brc1cc2c(cc1Br)OCCOCCOCCOCCO2", "Potency": "inconclusive [activator, single point]"}, {"molecule": "COC(=O)c1cc(NC(=O)CN(c2ccc(OC)cc2)S(=O)(=O)c2ccc(F)cc2)ccc1Cl", "Potency": "inactive"}, {"molecule": "CCc1nnc(NS(=O)(=O)c2ccc(NC(=S)Nc3ccc(F)cc3)cc2)s1", "Potency": "inactive"}, {"molecule": "CCCS(=O)(=O)c1nc(S(=O)(=O)c2ccc(C)cc2)c(NCc2ccc3c(c2)OCO3)s1", "Potency": "inconclusive [activator, single point]"}, {"molecule": "CCN1/C(=C/C(=S)Nc2ccccc2)Sc2ccccc21", "Potency": "inconclusive [inhibitor, partial curve]"}, {"molecule": "O=P(c1ccccc1)(c1ccccc1)c1nc(-c2ccccc2)oc1N1CCOCC1", "Potency": "inactive"}, {"molecule": "O=C(Nc1ccc(N2CCCCC2)cc1)c1ccc2ccccc2n1", "Potency": "inconclusive [inhibitor, single point]"}, {"molecule": "O=c1c(Br)c(N2CCCCC2)cnn1-c1ccccc1", "Potency": "inconclusive [inhibitor, single point]"}, {"molecule": "COc1ccc(-c2cc3nc(-c4ccccc4)cc(N4CCC(O)CC4)n3n2)cc1", "Potency": "inconclusive [activator, partial curve]"}, {"molecule": "O=C(Nc1cccc([N+](=O)[O-])c1)c1cc2ccccc2cc1O", "Potency": "inconclusive [inhibitor, single point]"}, {"molecule": "CCC(=O)NC[C@H](Cc1ccc(OCCc2nc(-c3ccccc3)oc2C)cc1)N/C(C)=C\\C(=O)c1ccc(C(F)(F)F)cc1", "Potency": "inconclusive [inhibitor, single point]"}, {"molecule": "N#CC(C#N)=Cc1cccn1-c1ccc(S(N)(=O)=O)cc1", "Potency": "inconclusive [inhibitor, single point]"}, {"molecule": "CSc1sc(C(=O)N(C)C)c2c1S(=O)(=O)N(C)c1ccccc1-2", "Potency": "inactive"}, {"molecule": "COc1ccc(N2C(=O)[C@@H]3[C@H](C2=O)[C@H]2C=CC=NN2[C@@H]3C(=O)Nc2ccc(Cl)cc2)cc1", "Potency": "inactive"}, {"molecule": "CNC(=O)/C(C#N)=C/c1c(N(Cc2ccccc2)Cc2ccccc2)nc2c(C)cccn2c1=O", "Potency": "inconclusive [inhibitor, single point]"}, {"molecule": "Cc1cccc(N=C2NC(=O)/C(=C/C=C/c3ccco3)S2)c1", "Potency": "inconclusive [inhibitor, single point]"}, {"molecule": "Cc1ccc(S(=O)(=O)NC2c3cccc4cccc(c34)C2Sc2nncn2C)cc1", "note": "(stereo not drawn)", "Potency": "inconclusive [activator, single point]"}, {"molecule": "CCOC(=O)CN(Cc1cc(OC)cc(N(C)C)c1OC)C(=O)C1CC(CO[Si](C)(C)C(C)(C)C)=CN1C(=O)OC(C)(C)C", "note": "(stereo not drawn)", "Potency": "inactive"}, {"molecule": "CCN1C(=O)[C@@H]2[C@H]3C(=CC[C@H]2C1=O)C(=O)[C@H]1OC1[C@H]3O", "note": "(stereo partly drawn)", "activity, negative = inhibition": "inactive: -4.24% [at 13.1 µM]"}, {"molecule": "CC(C)=CCC/C(C)=C/CO/N=C1/C[C@@H](O)[C@@H](O)[C@@H]2[C@@H]3C(=O)N(c4cccc(Oc5ccccc5)c4)C(=O)[C@H]3CC[C@@H]12", "activity, negative = inhibition": "inactive: 4.86% [at 13.1 µM]"}, {"molecule": "Cc1ccc(NC(=S)NNC(=O)CSc2nc3ccccc3c(=O)n2-c2ccc(C)cc2)cc1", "Potency": "inconclusive [inhibitor, partial curve]"}, {"molecule": "Cc1ccc([N+](=O)[O-])cc1NC(=O)C[n+]1ccccc1", "Potency": "inactive"}, {"molecule": "O=C(NNc1ccccn1)C(=O)NNS(=O)(=O)c1ccc(Cl)cc1", "Potency": "inconclusive [inhibitor, single point]"}, {"molecule": "CCCn1nc(NC(=O)c2ccco2)c2cc3ccccc3nc21", "Potency": "inconclusive [activator, partial curve]"}, {"molecule": "C=C(C)C(=O)Nc1cccc(C2=NOC3(C2)C[C@@H](C(N)=O)N(C(=O)/C=C/CC)C3)c1", "note": "(stereo partly drawn)", "Potency": "inconclusive [inhibitor, full curve]"}, {"molecule": "O=C(COc1ccccc1)Nc1nnc(-c2ccccc2)o1", "Potency": "inconclusive [inhibitor, single point]"}, {"molecule": "Nc1ccc(N2CCN(c3ccc(F)cc3)CC2)cc1", "Potency": "inconclusive [inhibitor, single point]"}, {"molecule": "Cc1ccc(C(=O)N2CCOCC2)c(F)c1F", "Potency": "inconclusive [activator, single point]"}, {"molecule": "CCN(CC)c1ccc2c(C)c(-c3ccc(N)cc3)c(=O)oc2c1", "Potency": "inconclusive [activator, partial curve]"}, {"molecule": "COc1cc(OC)nc(NC(=O)NS(=O)(=O)c2ccc(OC(F)(F)F)cc2)n1", "Potency": "inactive"}, {"molecule": "OCCCc1nc2n(n1)C(c1cccs1)C=C(c1ccccc1)N2", "note": "(stereo not drawn)", "Potency": "inactive"}, {"molecule": "COc1ccc(C2C(C(=O)c3ccco3)=C(O)C(=O)N2CCOCCO)cc1OC", "note": "(stereo not drawn)", "Potency": "inactive"}, {"molecule": "CCN(CC)C(=O)c1ccc(NC(=O)c2cccc(F)c2)cc1", "Potency": "inactive"}, {"molecule": "Cc1ccc(/C=C/C(=O)OCC(=O)NC(C)C)o1", "Potency": "inactive"}, {"molecule": "O=C(C1=C(O)C(=O)N(CCN2CCOCC2)C1c1cccnc1)c1cc2ccccc2o1", "note": "(stereo not drawn)", "Potency": "inactive"}, {"molecule": "Cc1ccc(Nc2ccc(C(F)(F)F)cc2[N+](=O)[O-])cc1", "Potency": "inconclusive [inhibitor, single point]"}, {"molecule": "NC(=S)N/N=C/c1ncc(C(F)(F)F)cc1Cl", "Potency": "inconclusive [inhibitor, partial curve]"}, {"molecule": "OCC[n+]1c2ccccc2nc2ccc(N3CCOCC3)cc21", "Potency": "inconclusive [inhibitor, partial curve]"}, {"molecule": "Cc1ccc(NC(=O)CSc2ccc(-c3ccccn3)nn2)cc1", "Potency": "inconclusive [inhibitor, full curve]"}, {"molecule": "C(=Nc1cccc2c(N=Cc3ccco3)cccc12)c1ccco1", "Potency": "inconclusive [inhibitor, single point]"}, {"molecule": "CC(=O)/C(=N\\Nc1ccccc1)Sc1cccc2cccnc12", "Potency": "inconclusive [inhibitor, single point]"}, {"molecule": "O=C(Nc1cccc(C(=O)N2CCN(c3cccc(Cl)c3)CC2)c1)c1ccccc1", "Potency": "inconclusive [inhibitor, single point]"}, {"molecule": "CC1Cc2ccccc2N1c1ncnc2c1nnn2Cc1ccccc1Cl", "note": "(stereo not drawn)", "Potency": "inactive"}, {"molecule": "CCCc1[nH]n(-c2nc3ccccc3s2)c(=O)c1C=NCCCN(CC)CC", "Potency": "inactive"}, {"molecule": "CCc1ccc(-c2cn(C3CCCCC3)c(=S)[nH]2)cc1", "Potency": "inconclusive [inhibitor, single point]"}, {"molecule": "CCN(CC)S(=O)(=O)c1cc(C(=O)Nc2ccccc2[N+](=O)[O-])ccc1Cl", "Potency": "inconclusive [inhibitor, single point]"}, {"molecule": "O=C(NC(=S)Nc1ccccc1N1CCCC1)c1ccco1", "Potency": "inactive"}, {"molecule": "Cn1c(C(=O)NCCc2c[nH]c3ccccc23)cc2sccc21", "Potency": "inconclusive [inhibitor, single point]"}, {"molecule": "COc1ccc(C2=C(N)c3ccccc3C2=O)cc1", "Potency": "inconclusive [inhibitor, single point]"}, {"molecule": "COc1cccc(C2C3=C(Nc4[nH]n(-c5ccccc5)c(=O)c42)c2ccccc2C3=O)c1", "note": "(stereo not drawn)", "Potency": "inconclusive [inhibitor, partial curve]"}, {"molecule": "CC(=O)N1C2(C=CC1(C)C(=O)NCc1ccc(C)o1)CCCCC2", "note": "(stereo not drawn)", "Potency": "inconclusive [inhibitor, single point]"}, {"molecule": "COc1ccc2c(c1)CC[C@@H]1[C@@H]2CC[C@]2(C)C(=O)CC[C@@H]12", "Potency": "inconclusive [activator, partial curve]"}, {"molecule": "O=C(OCc1ccccc1)c1ccccc1", "Potency": "inconclusive [activator, partial curve, poor fit]"}, {"molecule": "O=C(COc1ccc(Cl)cc1)Nc1nnc(C2=COCCO2)o1", "Potency": "inconclusive [inhibitor, partial curve]"}, {"molecule": "CCN(c1ccccc1)S(=O)(=O)c1ccc(C(=O)Nc2nnc(C3CC3)o2)cc1", "Potency": "inactive"}, {"molecule": "Cc1ncc(CO)c(/C=N/NC(=O)c2cc3c(s2)CCCC3)c1O", "Potency": "inconclusive [inhibitor, partial curve]"}, {"molecule": "C(=C\\c1ccc2ccccc2n1)/c1ccccc1", "Potency": "inconclusive [activator, partial curve]"}, {"molecule": "Cc1ccc(S(=O)(=O)N2CCN(C(=O)CSc3nc(N)cc(=O)[nH]3)CC2)c(C)c1", "Potency": "inconclusive [inhibitor, single point]"}, {"molecule": "COC(=O)c1cccc2nc3c(C(C)O)cccc3nc12", "note": "(stereo not drawn)", "Potency": "inconclusive [inhibitor, partial curve, poor fit]"}, {"molecule": "CCNc1nc(NC(N)=S)nc(NC(C)(C)C)n1", "Potency": "inactive"}, {"molecule": "Cc1cc(NS(=O)(=O)c2ccc(NC(=S)NC(=O)c3ccc(Cl)cc3Cl)cc2)no1", "Potency": "inactive"}]}]}
